Data taken from patent publication US20250270339A1 (Alector, published 2025).

T1: Cyno TfR ECD Avi-His (cynomolgus macaque, UniProt Q5RDH6 89-760 (Pongo abelii entry), biotin on the Avi tag (BirA) where captured on streptavidin)
T1 construct: also called Cyno TfR Avi-His; cyno TfR Avi-His
T1 chain: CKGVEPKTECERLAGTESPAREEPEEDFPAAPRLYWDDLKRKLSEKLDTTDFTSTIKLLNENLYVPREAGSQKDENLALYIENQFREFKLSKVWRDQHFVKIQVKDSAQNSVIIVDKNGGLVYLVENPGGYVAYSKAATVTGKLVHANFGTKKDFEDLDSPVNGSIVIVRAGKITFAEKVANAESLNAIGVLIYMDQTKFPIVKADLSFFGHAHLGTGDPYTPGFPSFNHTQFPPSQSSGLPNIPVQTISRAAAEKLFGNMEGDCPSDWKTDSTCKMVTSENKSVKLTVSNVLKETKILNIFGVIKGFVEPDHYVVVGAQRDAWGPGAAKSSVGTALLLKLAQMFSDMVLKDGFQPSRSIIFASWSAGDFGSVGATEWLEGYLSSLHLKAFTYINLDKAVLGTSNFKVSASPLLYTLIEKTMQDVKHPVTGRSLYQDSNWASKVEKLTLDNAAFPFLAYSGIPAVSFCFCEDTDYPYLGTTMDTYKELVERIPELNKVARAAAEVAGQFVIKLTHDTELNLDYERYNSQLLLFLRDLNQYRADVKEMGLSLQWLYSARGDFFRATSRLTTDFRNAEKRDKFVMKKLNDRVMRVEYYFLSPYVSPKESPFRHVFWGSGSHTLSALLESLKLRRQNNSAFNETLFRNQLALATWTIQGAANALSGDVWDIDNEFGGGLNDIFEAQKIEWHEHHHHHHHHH

T2: huTfR Apical Domain-Avi-His (human, biotin on the Avi tag (BirA) where captured on streptavidin)
T2 construct: also called huTfR apical Avi-His; hTfR Apical
T2 chain: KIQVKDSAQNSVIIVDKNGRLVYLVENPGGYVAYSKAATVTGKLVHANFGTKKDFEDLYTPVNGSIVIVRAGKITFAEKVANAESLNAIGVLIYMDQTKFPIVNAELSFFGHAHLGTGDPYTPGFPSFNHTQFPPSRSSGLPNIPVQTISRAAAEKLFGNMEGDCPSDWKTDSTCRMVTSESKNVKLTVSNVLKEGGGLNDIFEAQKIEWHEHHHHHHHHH

B1: TfR7 2+1 anti-TfR bispecific antibody (bispecific antibody, human IgG1, kappa)
heavy 1: EVRLLESGGGLVQPGGSLRLSCAASGFTFSNYAMGWVRQAPGKGLEWVSAISGSGGSTYYADSVKGRFTTSRDDSKNALYLQMNSLRAEDTAVYYCARGGPGWYAADVWGQGTTVTVSSASTKGPSVFPLAPSSKSTSGGTAALGCLVKDYFPEPVTVSWNSGALTSGVHTFPAVLQSSGLYSLSSVVTVPSSSLGTQTYICNVNHKPSNTKVDKKV[here human IgG1 Fc with changes without letters]GGGGSGGGGSGGGGSDVQLQESGPGLVKPSQSLSLTCTVTGYSITSDYAWNWLRQFPGNKLEWMGYISYSGYSRHNPSLKSRISITRDTSKNQFFLQLNSVTSEDTATYYCARGDWDFDYWGQGTTLTVSSGGSEGKSSGSGSESKSTGGSDIVMTQSQKFMSTSVGDRVSVTCKASQNVLTNVAWYQQKPGHSPKALIYSSSSRNSGVPDRFTGSGSGTDFTLTISNVQSEDLAEYFCQQYNTYPYTFGGGTKLEIK
heavy 2: EVRLLESGGGLVQPGGSLRLSCAASGFTFSNYAMGWVRQAPGKGLEWVSAISGSGGSTYYADSVKGRFTTSRDDSKNALYLQMNSLRAEDTAVYYCARGGPGWYAADVWGQGTTVTVSS[here human IgG1 constant region with changes without letters]
light: DIQMTQSPSSLSASVGDRVTITCRASQSISSYLNWYQQKPGKAPKLLIYAASSLQSGVPSRFSGSGSGTDFTLTISSLQPEDFATYYCQQADLPAFAFGGGTKVEIKRTVAAPSVFIFPPSDEQLKSGTASVVCLLNNFYPREAKVQWKVDNALQSGNSQESVTEQDSKDSTYSLSSTLTLSKADYEKHKVYACEVTHQGLSSPVTKSFNRGEC
notes: 2+1
B2: TfR15 2+1 anti-TfR bispecific antibody (bispecific antibody, human IgG1, kappa)
heavy 1: EVRLLESGGGLVQPGGSLRLSCAASGFTFSNYAMGWVRQAPGKGLEWVSAISGSGGSTYYADSVKGRFTTSRDDSKNALYLQMNSLRAEDTAVYYCARGGPGWYAADVWGQGTTVTVSSASTKGPSVFPLAPSSKSTSGGTAALGCLVKDYFPEPVTVSWNSGALTSGVHTFPAVLQSSGLYSLSSVVTVPSSSLGTQTYICNVNHKPSNTKVDKKV[here human IgG1 Fc with changes without letters]GGGGSGGGGSGGGGSQVQLQQPGSELVRPGASVKLSCKASGYTFTSYWMHWVKQRPGQGLEWIGNIYPGSGSSNYDEKFKSKATLTVDTSSSTAYMQLNSLTSEDSAVYYCTRSSYYGNFDTMDNWGQGTSVTVSSGGSEGKSSGSGSESKSTGGSQIVLTQSPAIMSASPGEKVTMTCSASSSIRYMNWYQQKPVTSPKRWIYDTSTLASGVPARFSGSGSGTSYSLTISSMEAEDAATYYCHQRSSYPWTFGGGTKLEIK
heavy 2: EVRLLESGGGLVQPGGSLRLSCAASGFTFSNYAMGWVRQAPGKGLEWVSAISGSGGSTYYADSVKGRFTTSRDDSKNALYLQMNSLRAEDTAVYYCARGGPGWYAADVWGQGTTVTVSS[here human IgG1 constant region with changes without letters]
light: B1 light
notes: 2+1; also called TfR15 parental; parental TfR15
B3: TfR9 2+1 anti-TfR bispecific antibody (bispecific antibody, human IgG1, kappa)
heavy 1: EVRLLESGGGLVQPGGSLRLSCAASGFTFSNYAMGWVRQAPGKGLEWVSAISGSGGSTYYADSVKGRFTTSRDDSKNALYLQMNSLRAEDTAVYYCARGGPGWYAADVWGQGTTVTVSSASTKGPSVFPLAPSSKSTSGGTAALGCLVKDYFPEPVTVSWNSGALTSGVHTFPAVLQSSGLYSLSSVVTVPSSSLGTQTYICNVNHKPSNTKVDKKV[here human IgG1 Fc with changes without letters]GGGGSGGGGSGGGGSEVQLQQSGPELVKPGASVKISCKTSGYTFTEYAMHWVKQSHGKSLEWIGGINPNDGGTSYNQKFKGKATLTVDKSSSTAYMELRSLTSEDSAVYYCSSQRWLLRGGDYWGQGTTLTVSSGGSEGKSSGSGSESKSTGGSDVVMTQTPLTLSVTIGQPASISCKSSQSLLDSDGKTYLNWLLQRPGQSPKRLIYLVSKLDSGVPDRFTGSGSGTDFTLKISRVEAEDLGVYYCWQGTHFPQTFGGGTKLEIK
heavy 2: EVRLLESGGGLVQPGGSLRLSCAASGFTFSNYAMGWVRQAPGKGLEWVSAISGSGGSTYYADSVKGRFTTSRDDSKNALYLQMNSLRAEDTAVYYCARGGPGWYAADVWGQGTTVTVSS[here human IgG1 constant region with changes without letters]
light: B1 light
notes: 2+1; also called parental TfR9 scFv
B4: TfR13 2+1 anti-TfR bispecific antibody (bispecific antibody, human IgG1, kappa)
heavy 1: EVRLLESGGGLVQPGGSLRLSCAASGFTFSNYAMGWVRQAPGKGLEWVSAISGSGGSTYYADSVKGRFTTSRDDSKNALYLQMNSLRAEDTAVYYCARGGPGWYAADVWGQGTTVTVSSASTKGPSVFPLAPSSKSTSGGTAALGCLVKDYFPEPVTVSWNSGALTSGVHTFPAVLQSSGLYSLSSVVTVPSSSLGTQTYICNVNHKPSNTKVDKKV[here human IgG1 Fc with changes without letters]GGGGSGGGGSGGGGSDVKLVESGGGLVKPGGSLKLSCAASGFTFSSYTMSWVRQTPEKRLEWVATISSGGSYTYFPDSVKGRFTISRDNAKNTLYLQMSSLKSEDTAIYYCTRAHYYAYDYWGQGTTLTVSSGGSEGKSSGSGSESKSTGGSDILLTQSPAILSVSPGERVSFSCRASQSIGTSIHWYQQRTNGSPRLLIKYASGSISGIPSRFSGSGSGTDFTLSINSVESEDIADYYCQQSNSWPTSTFGAGTKLELK
heavy 2: EVRLLESGGGLVQPGGSLRLSCAASGFTFSNYAMGWVRQAPGKGLEWVSAISGSGGSTYYADSVKGRFTTSRDDSKNALYLQMNSLRAEDTAVYYCARGGPGWYAADVWGQGTTVTVSS[here human IgG1 constant region with changes without letters]
light: B1 light
notes: 2+1

Target: T3, Full length human TfR on CHO cells (human, UniProt P02786)
T3 construct: also called CHO + huTfR; CHO + hTfR
T3 sequence (P02786 whole entry): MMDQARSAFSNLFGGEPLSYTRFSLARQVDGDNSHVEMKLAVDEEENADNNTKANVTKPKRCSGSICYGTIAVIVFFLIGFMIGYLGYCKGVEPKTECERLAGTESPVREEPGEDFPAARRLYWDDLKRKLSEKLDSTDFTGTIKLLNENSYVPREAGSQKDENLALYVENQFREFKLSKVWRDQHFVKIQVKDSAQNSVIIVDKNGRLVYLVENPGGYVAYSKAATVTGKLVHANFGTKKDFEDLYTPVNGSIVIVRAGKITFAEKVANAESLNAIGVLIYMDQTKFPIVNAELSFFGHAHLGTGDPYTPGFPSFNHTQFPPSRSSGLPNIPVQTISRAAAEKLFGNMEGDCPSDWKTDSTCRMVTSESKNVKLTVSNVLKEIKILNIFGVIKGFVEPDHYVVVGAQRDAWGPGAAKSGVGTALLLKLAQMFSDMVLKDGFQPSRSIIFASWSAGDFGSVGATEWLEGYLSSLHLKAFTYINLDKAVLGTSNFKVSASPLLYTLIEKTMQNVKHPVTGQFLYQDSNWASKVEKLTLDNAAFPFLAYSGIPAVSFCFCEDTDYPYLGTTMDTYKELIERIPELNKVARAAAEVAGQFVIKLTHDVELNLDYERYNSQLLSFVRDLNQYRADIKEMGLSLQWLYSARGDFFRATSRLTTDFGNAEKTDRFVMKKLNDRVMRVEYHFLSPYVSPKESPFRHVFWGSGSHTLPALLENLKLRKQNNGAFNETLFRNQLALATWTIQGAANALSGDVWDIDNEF
Assay: FACS MFI

Row | Binder | fold over CHO parental
1 | B1 | 314 fold
2 | B2 | 875 fold
3 | B3 | 62 fold
4 | B4 | 17 fold

Target: T1, Cyno TfR ECD Avi-His
Assay: ELISA OD450

Row | Binder | fold over isotype control
5 | B1 | 1 fold
6 | B2 | 28 fold
7 | B3 | 10 fold
8 | B4 | 1 fold

Target: T2, huTfR Apical Domain-Avi-His
Assay: ELISA OD450

Row | Binder | fold over isotype control
9 | B1 | 45 fold
10 | B2 | 40 fold
11 | B3 | 26 fold
12 | B4 | 8 fold

Target: T4, Mouse TfR (muTfR) ECD Avi-His (mouse, UniProt Q62351, biotin on the Avi tag (BirA) where captured on streptavidin)
T4 construct: also called MuTfR Avi-His
Assay: ELISA OD450

Row | Binder | fold over isotype control
13 | B1 | 1 fold
14 | B2 | 1 fold
15 | B3 | 1 fold
16 | B4 | 1 fold
